In PubChem BioAssay AID504832 (National Center for Advancing Translational Sciences (NCATS), 2011):
The whole screen tested about 310,000 compounds, of which about 18,000 (5.8%) were called active. The shares of active, inactive and inconclusive entries below differ from those in the screen. Calls follow the shape of the dose curve; as a rule, active = well fitted inhibition curve with a large enough effect; inconclusive = small, poorly fitted or top-dose-only effect, or another doubt; inactive = no such curve, though single readings can be large or run the other way. Potencies of inconclusive entries are left out as doubtful fits.

Experiment: Primary qHTS for delayed death inhibitors of the malarial parasite plastid, 48 hour incubation
Settings: P. falciparum luciferase growth in erythrocytes; series mostly up to 28.7 µM; activity change, negative = inhibition: at the top concentration
Method in brief: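 Luminescence readout; reporter = integrated firefly luciferase in P. falciparum. RBC culture at 2% hematocrit, 0.1% parasitemia final, 37 C/5% CO2; decreased signal taken as growth inhibition.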
% is scaled to controls: 0 for no effect and ±100 for the full control effect; potency is read from the fitted curve at half-maximal effect; tags tell the direction and shape of the fitted curve.

**Q.** Which “activity change, negative = inhibition” value does the source give for `Cc1cccc(CNC(=O)C2CCC(=O)N(CCc3cccc(F)c3)C2)n1` (centres undefined) here?
**A.** inactive: 8.32%

**Q.** For `CCCN(CC(=O)Nc1ccccc1C)C(=O)c1ccc(-c2ccc(C(C)=O)cc2)o1`, which Potency is on record?
**A.** inconclusive [inhibitor, single point]

**Q.** For `COC(=O)c1ccc2c(c1)C(C)(C)C(/C=C/c1ccc(O)cc1)=[N+]2C`, which Potency is on record?
**A.** inconclusive [inhibitor, single point]

**Q.** With `COc1ccc(C(c2nnnn2C2CCCC2)N2CCC(C)CC2)cc1` (centres undefined) as the compound, how does the Potency read?
**A.** inconclusive [inhibitor, single point]

**Q.** Which Potency does the source give for `COc1ccc(NC(=O)c2oc3ccccc3c2NC(=O)C2CC2)cc1OC` here?
**A.** inconclusive [inhibitor, partial curve]

**Q.** Which “activity change, negative = inhibition” value does the source give for `O=C(c1cccc(Cl)c1)C1CCCN(Cc2ccon2)C1` (centres undefined) here?
**A.** inactive: 35.2%

**Q.** For `CCn1c(=O)c(C(=O)CN2CCN(S(=O)(=O)c3ccc(C)cc3C)CC2)c(N)n(Cc2ccccc2)c1=O`, which Potency is on record?
**A.** inconclusive [inhibitor, partial curve, poor fit]

**Q.** Which Potency does the source give for `CCN(CCCNC(=O)CN(C)S(=O)(=O)c1cccc2nsnc12)c1ccccc1` here?
**A.** inconclusive [inhibitor, partial curve]

**Q.** With `COc1ccc(N2CCN(C(=O)[C@@H]3CCCN3C3=NS(=O)(=O)c4ccccc43)CC2)cc1` as the compound, how does the Potency read?
**A.** inconclusive [inhibitor, single point]

**Q.** Which “activity change, negative = inhibition” value does the source give for `CCCCNC(=S)Nc1ccc(OC)nc1` here?
**A.** inactive: -1.23%

**Q.** For `COc1ccc(CC(=O)Nc2ccccc2N2CCCCC2)cc1OC`, which Potency is on record?
**A.** inconclusive [inhibitor, partial curve]

**Q.** With `Cc1noc(C)c1C(=O)N(C)CC(=O)Nc1ccc(F)c(F)c1F` as the compound, how does the “activity change, negative = inhibition” value read?
**A.** inactive: 11.3%

**Q.** With `Cc1ccc(C)c(OCC(=O)Nc2ccccc2C(=O)N2CCN(C)CC2)c1` as the compound, how does the Potency read?
**A.** inconclusive [inhibitor, single point]

**Q.** With `O=C(CSc1nc2c(cnn2-c2ccc(F)cc2)c(=O)[nH]1)N1N=C(c2cccs2)CC1c1ccc(F)cc1` (centres undefined) as the compound, how does the Potency read?
**A.** inconclusive [inhibitor, partial curve, poor fit]

**Q.** For `Cc1[nH]c(C)c(S(=O)(=O)NCc2ccc(F)cc2)c1C(=O)N1CCCC1`, which “activity change, negative = inhibition” value is on record?
**A.** inactive: 10.2%

**Q.** With `O=C(C[n+]1ccc(Cc2ccccc2)cc1)Nc1ccccc1` as the compound, how does the “activity change, negative = inhibition” value read?
**A.** inactive: -28.9%

**Q.** With `Cc1ccc(-c2nn(-c3ccccc3)cc2CNCc2ccccc2)cc1` as the compound, how does the Potency read?
**A.** inconclusive [inhibitor, single point]

**Q.** With `O=c1cc(-c2ccccc2)nc2cc(-c3ccc(Br)cc3)[nH]n12` as the compound, how does the Potency read?
**A.** inconclusive [inhibitor, full curve]

**Q.** For `COc1ccc(Cl)cc1NC(=O)CN(C)C(=O)c1sc2ccccc2c1Cl`, which Potency is on record?
**A.** inconclusive [inhibitor, single point]

**Q.** For `Cc1nn(-c2ccccc2)c(C)c1C1C(C#N)=C(N)Oc2n[nH]c(C)c21` (centres undefined), which Potency is on record?
**A.** inconclusive [inhibitor, single point]

**Q.** For `O=[N+]([O-])c1ccc(Oc2cccc(Br)c2)c2ccncc12`, which Potency is on record?
**A.** active: 11.7 µM

**Q.** For `NC1=NC[C@H](Cc2ccc(O)cc2)N1CC1CCCCC1`, which Potency is on record?
**A.** active: 5.86 µM

**Q.** With `CCOC(=O)c1ccc(NC(=O)COc2ccc(S(=O)(=O)NC(C)CC)cc2)cc1` (centres undefined) as the compound, how does the Potency read?
**A.** inconclusive [inhibitor, partial curve, poor fit]

**Q.** For `COc1ccc(Nc2nc(N3CCCCC3)c3ccccc3n2)cc1`, which Potency is on record?
**A.** active: 7.38 µM

**Q.** For `CCC(=O)OCCn1c(=O)c2ccccc2c2ccccc2c1=O`, which Potency is on record?
**A.** inconclusive [inhibitor, partial curve, poor fit]

**Q.** For `COc1ccc(-n2nc(C(=O)NCC(=O)N3CCN(c4ccccc4F)CC3)c3ccccc3c2=O)cc1OC`, which Potency is on record?
**A.** inconclusive [inhibitor, partial curve, poor fit]

**Q.** For `CC1=CC2=NC(=O)/C(=C\c3cc(C)n(-c4ccccc4)c3C)C(=N)N2O1`, which Potency is on record?
**A.** inconclusive [inhibitor, single point]

**Q.** For `Cn1nc(C(=O)NCc2ccccc2CN2CCCC2)c2ccccc2c1=O`, which Potency is on record?
**A.** inconclusive [inhibitor, single point]

**Q.** Which Potency does the source give for `CC(C(=O)NCCS(=O)(=O)c1ccc(Cl)cc1)S(=O)(=O)c1ccccc1` (centres undefined) here?
**A.** inconclusive [inhibitor, partial curve, poor fit]

**Q.** Which Potency does the source give for `CCc1ccc(N(CC(=O)Nc2ccc(NC(C)=O)cc2)S(=O)(=O)c2ccccc2)cc1` here?
**A.** active: 13.1 µM

**Q.** Which Potency does the source give for `Cc1ccc2c(=O)c(C(=O)NCc3cccs3)c[nH]c2c1` here?
**A.** inconclusive [inhibitor, partial curve, poor fit]

**Q.** Which Potency does the source give for `CC1CCCN(CC(=O)N2c3ccccc3Sc3ccccc32)C1` (centres undefined) here?
**A.** inconclusive [inhibitor, single point]

**Q.** With `CC(=O)Nc1ccc(NC(=O)c2cc(=O)c3ccc(C)cc3o2)cc1` as the compound, how does the “activity change, negative = inhibition” value read?
**A.** inactive: 30.6%

**Q.** With `COc1ccccc1N(C1=NCCCS1)S(=O)(=O)c1ccc(C(C)(C)C)cc1` as the compound, how does the Potency read?
**A.** inconclusive [inhibitor, partial curve]

**Q.** With `COC(=O)CCNC(=O)Cc1ccc(S(=O)(=O)N2CCCCC2)s1` as the compound, how does the Potency read?
**A.** inconclusive [inhibitor, single point]

**Q.** For `O=C(NC1CCCCC1)C(c1cccs1)N(CC1CCCO1)C(=O)c1csnn1` (centres undefined), which Potency is on record?
**A.** inconclusive [inhibitor, single point]

**Q.** Which Potency does the source give for `CC(C)(C)c1ccc(C(=O)N2CCCCCC2=O)cc1` here?
**A.** active: 5.22 µM

**Q.** Which Potency does the source give for `CCOc1ccccc1N1Cc2cc(C)c(C)cc2C1` here?
**A.** active: 13.1 µM

**Q.** For `Cc1nn(-c2ccccc2Cl)c(Cl)c1/C=N/Nc1nc2ccccc2s1`, which Potency is on record?
**A.** inconclusive [inhibitor, full curve, poor fit]

**Q.** With `Cc1conc1NC(c1cccs1)c1ccc2cccnc2c1O` (centres undefined) as the compound, how does the Potency read?
**A.** active: 1.85 µM

**Q.** Which Potency does the source give for `Cn1c(SCC(=O)N2CCCC2=O)nc2ccccc21` here?
**A.** inconclusive [inhibitor, single point]

**Q.** For `Cc1c(C)c2c(OCC(=O)Nc3cccnc3)cc3c(c2oc1=O)CCC(C)(C)O3`, which Potency is on record?
**A.** inconclusive [inhibitor, partial curve, poor fit]

**Q.** For `COc1cc(/C=C/C(=O)Nc2ccc(N3CCCCC3)c(S(=O)(=O)Nc3ccccc3Cl)c2)cc(OC)c1OC`, which Potency is on record?
**A.** active: 13.1 µM

**Q.** Which Potency does the source give for `CCOc1ccc(Oc2ccc(C(F)(F)F)cc2NC(=O)C2=COCCO2)cc1` here?
**A.** active: 14.7 µM

**Q.** With `Cc1ccccc1C(=O)NNc1ccc(-c2csnn2)cc1` as the compound, how does the Potency read?
**A.** active: 1.85 µM

**Q.** For `Cc1cc(N2CCOCC2)nc2ccc(NC(=S)N3CCN(c4ccccc4)CC3)cc12`, which Potency is on record?
**A.** inconclusive [inhibitor, single point]

**Q.** Which Potency does the source give for `CCN(CC)C(=O)CSc1nnc2nnc3cc(C)ccc3n12` here?
**A.** inconclusive [inhibitor, single point]

**Q.** Which Potency does the source give for `CCOC(=O)N/N=C\c1ccc(-c2cccc(C(F)(F)F)c2)o1` here?
**A.** inconclusive [inhibitor, full curve, poor fit]

**Q.** With `COc1ccc(C2C=C(c3ccccc3)Nc3ncnn32)cc1` (centres undefined) as the compound, how does the Potency read?
**A.** inconclusive [inhibitor, single point]

**Q.** Which “activity change, negative = inhibition” value does the source give for `Cc1cc(C)c(C)c(S(=O)(=O)ON2C(=O)c3ccccc3C2=O)c1C` here?
**A.** inactive: 6.73%

**Q.** For `C/C(=N\N=C(N)N)c1ccc(C)c(C)c1`, which Potency is on record?
**A.** active: 9.28 µM

**Q.** For `CC(=O)Oc1ccc2ccccc2c1C(NC(=O)Cc1ccccc1)c1ccc(Cl)cc1` (centres undefined), which Potency is on record?
**A.** active: 4.65 µM

**Q.** With `Cc1cc(C)nc(SCCCNCc2c(F)cccc2Cl)n1` as the compound, how does the Potency read?
**A.** inconclusive [inhibitor, full curve]

**Q.** With `CCCCCOc1ccc(C(=O)Nc2ccc(S(=O)(=O)Nc3cc(C)on3)cc2)cc1` as the compound, how does the “activity change, negative = inhibition” value read?
**A.** inactive: -11.4%

**Q.** Which Potency does the source give for `CCOc1ccc(NC(=O)c2ccc(NC(=O)COC(=O)c3ccc(NC(=O)CC#N)cc3)cc2)cc1` here?
**A.** inconclusive [inhibitor, single point]

**Q.** Which Potency does the source give for `CC(C)O/N=C1\C(=O)N(c2ccccc2)c2ccccc21` here?
**A.** inconclusive [inhibitor, single point]

**Q.** For `CC1Cc2ccccc2N1C(=O)C(C)n1cc(C(F)(F)F)cc(Cl)c1=O` (centres undefined), which Potency is on record?
**A.** inconclusive [inhibitor, single point]

**Q.** Which Potency does the source give for `Cc1ccc(CNC(=O)CCCn2c(=O)[nH]c3ccccc3c2=O)cc1` here?
**A.** inconclusive [inhibitor, single point]

**Q.** Which Potency does the source give for `Cc1ccc(CSCC(=O)N(C)CC(=O)Nc2ccc(C)cc2)cc1` here?
**A.** inconclusive [inhibitor, single point]

**Q.** Which Potency does the source give for `CCc1cccc(CC)c1NC(=O)COC(=O)C1(c2ccc(Cl)cc2)CCCC1` here?
**A.** inconclusive [inhibitor, single point]

**Q.** Which “activity change, negative = inhibition” value does the source give for `CC(Sc1nnc(-c2ccccc2)c(-c2ccccc2)n1)C(=O)Nc1ncc(Cl)cc1Cl` (centres undefined) here?
**A.** inactive: -17.1%

**Q.** For `COc1ccc(N2C(=O)/C(=C\c3ccco3)N=C2SCC(=O)NC(C)(C)C)cc1Cl`, which Potency is on record?
**A.** inconclusive [inhibitor, partial curve, poor fit]

**Q.** Which Potency does the source give for `Cn1nccc1NC(=O)COCC(=O)O` here?
**A.** inconclusive [inhibitor, single point]

**Q.** With `COc1cc(O)c(C(CCN2CCOCC2)c2ccc3c(c2)OCO3)c(OC)c1` (centres undefined) as the compound, how does the Potency read?
**A.** active: 1.65 µM

**Q.** Which “activity change, negative = inhibition” value does the source give for `O=c1[nH]c2ccc(Cl)cc2c(-c2ccccc2)c1N1CCOCC1` here?
**A.** inactive: -2.87%

**Q.** For `COc1cccc(-c2csc(N3CCN(C(=O)Nc4ccc(Cl)cc4)CC3)n2)c1`, which Potency is on record?
**A.** inconclusive [inhibitor, single point]

**Q.** For `C/C(=N\NC(=O)c1ccco1)c1cc(Cl)sc1Cl`, which “activity change, negative = inhibition” value is on record?
**A.** inactive: 38.7%

**Q.** For `Cc1cc(C)nc(NC(=O)NC(=O)c2ccccc2)n1`, which “activity change, negative = inhibition” value is on record?
**A.** inactive: 9.57%

**Q.** For `CCOc1ccc(-n2c(SCc3ccc(C(=O)OC)o3)nc3c(c2=O)SCC3)cc1`, which Potency is on record?
**A.** inconclusive [inhibitor, single point]
